According to the supplement of paper PMC10115384:
Human monoclonal antibodies (heavy:light variable regions, translated from the printed DNA). IC50 against SARS-CoV-2 spike pseudoviruses, on VSV particles in 293T-ACE2 cells (24 h) or MLV particles in HeLa-ACE2 cells (72 h); lower = stronger; >1.0 µg/ml as printed. No active / inactive call per row; the paper counts an IC50 of 0.4 µg/ml or less on any variant as neutralizing. Only 98 of the paper's 459 antibodies have neutralization values; the two systems are not on one scale.

What was measured:
Assay in all cases: pseudovirus neutralization IC50; higher = weaker neutralization
[1] = molecular target: SARS-CoV-2 Beta spike pseudovirus; settings: system: VSV particle, 293T-ACE2 cells
Description: (§1)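 Single-round reporter pseudovirus mixed with dilutions of yeast-made human IgG and put on ACE2-bearing cells; IC50 from the dose curve.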

[2] = molecular target: SARS-CoV-2 index (Wuhan-Hu-1) spike pseudovirus
Description: as §1

[3] = molecular target: SARS-CoV-2 Delta spike pseudovirus; settings: system: VSV particle, 293T-ACE2 cells
Description: as §1

[4] = molecular target: SARS-CoV-2 Omicron BA.1 spike pseudovirus; settings: system: MLV particle, HeLa-ACE2 cells
Description: as §1

[5] = system: VSV particle, 293T-ACE2 cells
[6] = system: MLV particle, HeLa-ACE2 cells

B1: ADI-67825 (protein)
chain 1: QVQLQQWGAGLLKPSETLSLTCAVYGGSFSGHYWNWIRQPPGKGLEWIGEINHSGSSNYNPSLRSRVTISVDTSKNQLSLKLSSVTAADTAVYYCVRGRAVTTFFFYYDLDVWGQGTTVTVSS
chain 2: QSVLTQPPSASGTPGQRVAVSCSGSSSNIGSHTVNWYQQLPGTAPKLLIYKNDQRPSGVPDRFSGSKSGTSASLAISGLQSENEGDYYCAAWDDSLNGYVFGTGTKVTVL
pseudovirus neutralization IC50 [1]: > 1 µg/mL
pseudovirus neutralization IC50 [2, 5]: > 1 µg/mL

B2: ADI-67977 (protein)
chain 1: EVQLVESGGGLVQPGRSLRLSCAASGFTFDDYAMHWVRQAPGKGLEWVSGVTWNSGTIGYADSVKGRFIISRDNAKNSLYLQMNSLRAEDTALYYCVKDMSVGDRSVEYYGMDVWGQGTTVTVSS
chain 2: SYVLTQPPSVSVAPGKTARITCGGNNIGSKSVHWYQRKPGQAPVLVIYYDSDRPSGIPGRFSGSNSGNTATLTISRVEAGDEADYYCQVWDSSSENVVFGGGTKLTVL
pseudovirus neutralization IC50 [1]: 0.29 µg/mL
pseudovirus neutralization IC50 [3]: 0.443 µg/mL
pseudovirus neutralization IC50 [4]: 0.0283 µg/mL
pseudovirus neutralization IC50 [2, 6]: 0.0297 µg/mL
pseudovirus neutralization IC50 [2, 5]: 0.0759 µg/mL

B3: ADI-67981 (protein)
chain 1: QVQLVQSGAEVKKPGSSVKVSCKASGDTFRIYAINWVRQAPGQGLEWMGGIIPISGAPFYAQRFQGRVTITADESTSTAYMELSSLRFEDTAVFYCARDGRHNYDSTGYYHNAFDIWGQGTMVTVSS
chain 2: DIQMTQSPSSLSTSVGDRVTITCRASQNISNYLNWYQQKPGKAPKLLIYAASSLQSGVPSRFSGTGSGTDFTLTISSLQPEDFGTYYCQQSYSSRTFGQGTKVEIK
pseudovirus neutralization IC50 [1]: > 1 µg/mL
pseudovirus neutralization IC50 [3]: 0.0117 µg/mL
pseudovirus neutralization IC50 [4]: 0.0444 µg/mL
pseudovirus neutralization IC50 [2, 6]: 0.00509 µg/mL
pseudovirus neutralization IC50 [2, 5]: 0.0094 µg/mL

B4: ADI-67971 (protein)
chain 1: EVQLVESGGGLVQSGRSLRLSCAASGFTFEDYAVHWVRQAPGKGLEWVSGVSWNSGTIGYADSVKGRFFISRDNAKNSLYLQMNGLRPEDTGLYYCAKLGGANAYDFRSGPTAFDIWGQGTMVTVSS
chain 2: QSVLTQPPSASGTPGQRVTISCSGSTSNIGSNTANWYQQLPGTAPKLLIYSDNQRPSGVPDRFSGSKSGTSASLAISGLQSEDEADYYCATWDDSLNGVVVFGGGTKLTVL
pseudovirus neutralization IC50 [1]: 0.399 µg/mL
pseudovirus neutralization IC50 [3]: > 1 µg/mL
pseudovirus neutralization IC50 [4]: 0.133 µg/mL
pseudovirus neutralization IC50 [2, 6]: 0.0599 µg/mL
pseudovirus neutralization IC50 [2, 5]: 0.136 µg/mL

B5: ADI-67857 (protein)
chain 1: QLQLQESGPGLVKPSETLSLTCSVSGGSISSSDYYWGWIRQPPGKGLEWIGSFYYSGTTYYNPSLKSRVTISVDTSKNHFSLRLSSVTAADTAVYYCAVGGVRFLEWLLQFDYWGQGTLVTVSS
chain 2: QSALTQPPSASGSPGQSVTISCTGTSSDVGASNYVSWYQQHPGKVPKLMIYEVSKRPSGVPDRFSGSKSGNTASLTVSGLQAEDEADYYCSSYAGSSNLVFGTGTKVTVL
pseudovirus neutralization IC50 [1]: 0.0727 µg/mL
pseudovirus neutralization IC50 [3]: 0.0159 µg/mL
pseudovirus neutralization IC50 [4]: 0.0192 µg/mL
pseudovirus neutralization IC50 [2, 6]: 0.00284 µg/mL
pseudovirus neutralization IC50 [2, 5]: 0.0027 µg/mL

B6: ADI-67869 (protein)
chain 1: QVQLVESGGGVVQPGRSLRLSCAASGFTFSTYDMHWVRQTPGKGLEWLAIISYDGSTKFYADSVKGRFTISRDNSKNTLSLQMSSLRAEDTAVYYCARPFYDDLSSGTFDYWGQGTLVTVSS
chain 2: DIQMTQSPSSLSASVGDRVTITCRASQSIGRYLNWYQQKPGKAPKLLIYTASSLQSGVPSRFSGSGSGTDFTLTISALQPEDFATYYCQQTYSTLSITFGQGTRLEIK
pseudovirus neutralization IC50 [1]: > 1 µg/mL
pseudovirus neutralization IC50 [3]: > 1 µg/mL
pseudovirus neutralization IC50 [2, 5]: > 1 µg/mL

B7: ADI-67910 (protein)
chain 1: EVQLVESGGGLVKPGGSLRLSCEASGLSFSSSWMTWVRQAPGKGLEWVGRIKIRKDGGTTDYAAPVKGRFTISRDDSKNTLYLQMNSLETEDTAVYYCTTINRKYDFWSGYSAEQLHWGQGTLVTVSS
chain 2: QSVLTQPPSVSAAPGQKVTISCSGNSSNIGTNYVSWYQQLPGTAPKLLIYDNNERPSGIPDRFSGSKSGTSATLGITGLQTGDEADYYCGAWDDSLNAGVFGGGTQLTVL
pseudovirus neutralization IC50 [1]: > 1 µg/mL
pseudovirus neutralization IC50 [3]: > 1 µg/mL

B8: ADI-67831 (protein)
chain 1: EVQLVESGGGLVQPGRSLRLSCTASAFTSGDYAMSWFRQAPGKGLEWVGFIRSKAFGGTTQYAASVKGRFTISRDDSKSIAYLQMNSLKTEDTAVYYCTLTVTNRYYFHSWGQGTLVTVSS
chain 2: EIVMTQSPATLSVSPGERATLSCRASQSVSSNLAWYQQKPGQAPRLLIYGASTRATGIPARFSGSGSGTDFTLTISSLQSEDFAVYYCQQYNNWFSFGQGTKLEIK
pseudovirus neutralization IC50 [1]: > 1 µg/mL
pseudovirus neutralization IC50 [3]: 0.832 µg/mL
pseudovirus neutralization IC50 [2, 5]: 0.009 µg/mL

B9: ADI-67983 (protein)
chain 1: EVQLVESGGGLVQPGGSLRLSCAASGFTFDDYAMHWVRQAPGKGLEWVSGISWSSDSGSIVYADSVEGRFTISRDNAKNSLYLQMNSLRTEDTALYYCAKGKWPSSPSFLTDYWGQGTLVTVSS
chain 2: DIQMTQSPSSLSASVGDRVTITCRASQGIRNYLAWYQQNPGKVPKLLIYAASTLQPGVPSRFSGSGSGTDYTLTISSLRPEDVGTYYCQKYNSVPLTFGGGTKVEIK
pseudovirus neutralization IC50 [1]: > 1 µg/mL
pseudovirus neutralization IC50 [3]: 0.0049 µg/mL
pseudovirus neutralization IC50 [2, 6]: 0.0031 µg/mL
pseudovirus neutralization IC50 [2, 5]: 0.0031 µg/mL

B10: ADI-67852 (protein)
chain 1: EVQLVESGGGLVQPGRSLTLSCAASGFTFEDFAMHWVRQAPGKGLEWVSGISWNGGIIGYADSVKGRCTISRDNAKNSLYVHIRSLRVEDTALYYCAKDIQFRDRDCTNGVCSVGGFDYWGQGTLVTVSS
chain 2: EIVMTQSPATLSVSPGERATLSCRASQSVSSNLAWYQQKPGQAPRLLIYGAYTRATGIPARFSGSGSGTEFTLTISSLQSEDFAVYYCQQYNKWPPRTFGQGTKLEIK
pseudovirus neutralization IC50 [1]: > 1 µg/mL
pseudovirus neutralization IC50 [3]: > 1 µg/mL
pseudovirus neutralization IC50 [4]: 1.1 µg/mL
pseudovirus neutralization IC50 [2, 6]: 0.0605 µg/mL
pseudovirus neutralization IC50 [2, 5]: 0.234 µg/mL

B11: ADI-67838 (protein)
chain 1: QVQLQESGPGLVKPSQTLSLTCTVSGGSIRSGIYYWYWIRQPAGKGLEWIGRIYPSGISDYNPSLKSRVTMSVDTSKNQFSLKLSSVTAADTAVYFCAGDFWNPPWDVWGQGTTVTVSS
chain 2: QSVLTQPPSASGTPGQRVAISCSGSSSNAGRNTVNWYQQVPGTAPKLLIYKNDQRPSGVPDRFSGSKSGTSASLAISGLQSEDEADYYCAAWDDSLNSRQFGGGTQLTVL
pseudovirus neutralization IC50 [1]: > 1 µg/mL
pseudovirus neutralization IC50 [3]: 0.987 µg/mL
pseudovirus neutralization IC50 [2, 5]: 0.653 µg/mL

B12: ADI-67992 (protein)
chain 1: QVQLQESGPGLVKPSGTLSLTCTVSGGTISSGNWWSWVRQPPGKGLEWIGEIYHSGSTNYNPSLKSRVTISVDKSNNQFSLKLNFVTAADTAVYYCARLNYRFGELDYWGQGTLVTVSS
chain 2: NFMLTQPHSVSESPGKTVTISCTGSSGSIANNYVQWYQQRPGSAPSTVIYEDNQRPSGVPDRFSGSIDSSSNSASLTISGLKTEDEADYYCQSFDNTNRIFGGGTKLTVL
pseudovirus neutralization IC50 [1]: > 1 µg/mL
pseudovirus neutralization IC50 [3]: > 1 µg/mL
pseudovirus neutralization IC50 [2, 5]: > 1 µg/mL

B13: ADI-67828 (protein)
chain 1: QVQLQESGPGLVKPSETLSLTCTVSGGFVSKYYWSWIRQPPGKGLECIGYVYSSGSTNYNPSLKSRVTISVDTSKNQFSLKLTSVTAADSAVYYCARRGLGYCDSNNCQSAFDIWGQGTMVTVSS
chain 2: DIQMTQSPSSLSASVGDRVTFTCRASQNIRTYLNWYQQKPGQAPKLLIYAASSLQSGVPSRFSGSGSGTDFTLTISSLQPEDFATYFCQQSYSFLYTFGQGTKVEIK
pseudovirus neutralization IC50 [1]: > 1 µg/mL
pseudovirus neutralization IC50 [2, 5]: > 1 µg/mL

B14: ADI-67880 (protein)
chain 1: QVQLVESGGGVVQPGRSLRLSCATSGFTFSSYGMHWVRQAPGKGLEWVSVISYDGSSKYYADSVKGRFTISRDNSKSTLYLQMNSLRAEDTAVYYCAKEFYDSSGSFNTYFYYYYGMDVWGQGTTVTVSS
chain 2: QSALTQPASVSGSPGQSITISCTGTSSDVGLYNYVSWYQQHPGKAPKVMIYDVSNRPSGVSNRFSGSKAGNTASLTISGLQTEDEADYYCSSYTTSPTLVYVFGTGTKVTVL
pseudovirus neutralization IC50 [1]: > 1 µg/mL
pseudovirus neutralization IC50 [3]: > 1 µg/mL
pseudovirus neutralization IC50 [2, 5]: > 1 µg/mL

B15: ADI-67850 (protein)
chain 1: EVQLVESGGGLVKPGGSLRLSCAASGFTFRSHSINWVRQAPGKGLEWVSSISSTSNYIYYADSVKGRFTISRDNAKNSLYLQMHSLRAEDTAVYYCARDQDSGYDYGFSHFYYGLDVWGQGTTVTVSS
chain 2: DIQMTQSPSSVSASVGDRVTITCRASQGISSWLAWYQQKPGKAPKLLIYAASSLQSGAPSRFSGSGSGTDFTLTISSLQPEDFATYYCQQGNSFPWTFGQGTKVEIK
pseudovirus neutralization IC50 [1]: > 1 µg/mL
pseudovirus neutralization IC50 [3]: > 1 µg/mL
pseudovirus neutralization IC50 [4]: 5.65 µg/mL
pseudovirus neutralization IC50 [2, 6]: 0.465 µg/mL
pseudovirus neutralization IC50 [2, 5]: 0.62 µg/mL
